From patent US11618753B2 (priority 2018, dated 2023)

test system: MLKL phosphorylation, HT29-L23 human colorectal adenocarcinoma cells; experiment: cells; conditions: read-out: pMLKL HCS Cell Assay (IC50, uM)

SMILES | IC50
COc1ncc(-c2cc(C(F)(F)F)c3c(N)ncnn23)cc1C(=O)N[C@@H]1CN(C2CCCc3c(Br)cccc32)C[C@@H]1F (mixture of isomers) [Example 1359, 5-[4-amino-5-(trifluoromethyl)-pyrrolo[2,1-f][1,2,4]triazin-7-yl]-N-[(3R,4S)-1-(5-bromo-1,2,3,4-tetrahydronaphthalen-1-yl)-4-fluoropyrrolidin-3-yl]-2-methoxypyridine-3-carboxamide] | 0.342 µM
COc1ncc(-c2cc(C(F)(F)F)c3c(N)ncnn23)cc1C(=O)N[C@@H]1CN(C2CCc3cccc(Cl)c32)C[C@@H]1F (mixture of isomers) [Example 1360, 5-[4-amino-5-(trifluoromethyl)-pyrrolo[2,1-f][1,2,4]triazin-7-yl]-N-[(3R,4S)-1-(7-chloro-2,3-dihydro-1H-inden-1-yl)-4-fluoropyrrolidin-3-yl]-2-methoxypyridine-3-carbox-amide] | 0.105 µM
COc1ncc(-c2cc(C(F)(F)F)c3c(N)ncnn23)cc1C(=O)N[C@@H]1CN(C2CCCc3ccccc32)C[C@@H]1F (mixture of isomers) [Example 1361, 5-[4-amino-5-(trifluoromethyl)-pyrrolo[2,1-f][1,2,4]triazin-7-yl]-N-[(3R,4S)-4-fluoro-1-(1,2,3,4-tetrahydro-naphthalen-1-yl)pyrrolidin-3-yl]-2-methoxypyridine-3-carboxamide] | 0.03 µM
COc1ncc(-c2cc(C(F)(F)F)c3c(N)ncnn23)cc1C(=O)NC1CN(C(C)CC(O)(c2ccccc2)C(F)(F)F)C[C@@H]1F (mixture of isomers) [Example 1383, 5-[4-amino-5-(trifluoromethyl)-pyrrolo[2,1-f][1,2,4]triazin-7-yl]-N-[(3R,4S)-4-fluoro-1-(5,5,5-trifluoro-4-hydroxy-4-phenylpentan-2-yl)pyrrolidin-3-yl]-2-methoxypyridine-3-carboxamide] | 0.364 µM
COc1ncc(-c2cc(C(F)(F)F)c3c(N)ncnn23)cc1C(=O)N[C@@H]1CN(C2CCCC2O)C[C@@H]1F (mixture of isomers) [Example 1406, 5-[4-amino-5-(trifluoromethyl)-pyrrolo[2,1-f][1,2,4]triazin-7-yl]-N-[(3R,4S)-4-fluoro-1-(2-hydroxycyclopentyl)pyrrolidin-3-yl]-2-methoxypyridine-3-carboxamide] | 0.153 µM
COc1ncc(-c2cc(C(F)(F)F)c3c(N)ncnn23)cc1C(=O)N[C@H]1CC[C@@H](c2ccc(Br)cc2)C1 (racemic) [Example 1687, 5-(4-amino-5-(trifluoromethyl)pyrrolo[2,1-f][1,2,4]triazin-7-yl)-N-((1SR,3RS)-3-(4-bromophenyl)cyclopentyl)-2-methoxynicotinamide] | 0.154 µM
COc1ncc(-c2cc(C(F)(F)F)c3c(N)ncnn23)cc1C(=O)N[C@@H]1CCC[C@@H](c2ccccc2)C1 (racemic) [Example 1692, 5-(4-amino-5-(trifluoromethyl)pyrrolo[2,1-f][1,2,4]triazin-7-yl)-2-methoxy-N-((1RS,3RS)-3-phenylcyclohexyl)nicotinamide] | 0.059 µM
COc1ncc(-c2cc(C(F)(F)F)c3c(N)ncnn23)cc1C(=O)N[C@H]1CCC[C@@H](c2ccccc2)C1 (racemic) [Example 1693, 5-(4-amino-5-(trifluoromethyl)pyrrolo[2,1-f][1,2,4]triazin-7-yl)-2-methoxy-N-((1SR,3RS)-3-phenylcyclohexyl)nicotinamide] | 0.004 µM
COc1ncc(-c2cc(CN3CCC(F)(F)CC3)c3c(N)ncnn23)cc1C(=O)N[C@H]1CCC[C@@H](c2ccccc2)C1 (racemic) [Example 1695, 5-(4-amino-5-((4,4-difluoropiperidin-1-yl)methyl)pyrrolo[2,1-f][1,2,4]triazin-7-yl)-2-methoxy-N-((1SR,3RS)-3-phenylcyclohexyl)nicotinamide] | 0.009 µM
COc1ncc(-c2cc(C(F)(F)F)c3c(N)ncnn23)cc1C(=O)N[C@H]1CCC[C@@H](c2ccc(F)cc2)C1 (racemic) [Example 1696, 5-(4-amino-5-(trifluoromethyl)pyrrolo[2,1-f][1,2,4]triazin-7-yl)-N-((1SR,3RS)-3-(4-fluorophenyl)cyclohexyl)-2-methoxynicotinamide] | 0.0093 µM
